Data on 153 variants can be found in a collection of fitness landscapes (doi:10.1126/science.1257360).

The chains are these.
B1: PhoQ; a variant is named by its letters at X, in order, P23837 (parent)
chain: MKKLLRLFFPLSLRVRFLLATAAVVLVLSLAYGMVALIGYSVSFDKTTFRLLRGESNLFYTLAKWENNKLHVELPENIDKQSPTMTLIYDENGQLLWAQRDVPWLMKMIQPDWLKSNGFHEIEADVNDTSLLLSGDHSIQQQLQEVREDDDDAEMTHSVAVNVYPATSRMPKLTIVVVDTIPVELKSSYMVWSWFIYVLSANLLLVIPLLWVAAWWSLRPIEALAKEVRELEEHNRELLNPATTRELTSLVRNLNRLLKSERERYDKYRTTLTDLTHSLKTPLXXLQXXLRSLRSEKMSVSDAEPVMLEQISRISQQIGYYLHRASMRGGTLLSRELHPVAPLLDNLTSALNKVYQRKGVNISLDISPEISFVGEQNDFVEVMGNVLDNACKYCLEFVEISARQTDEHLYIVVEDDGPGIPLSKREVIFDRGQRVDTLRPGQGVGLAVAREITEQYEGKIVAGESMLGGARMEVIFGRQHSAPKDE

The other results are listed elsewhere or left out. Where only a bound is given, the exact number is not on record here.

The test covers variants of B1. The test is described as follows: enrichment ratio after two sorts for PhoP signalling (ratio (wild type AVST 3.29)); higher = more functional. The note with it: with PhoP (E. coli).
Regarding FYPA, the enrichment ratio is at most 0.25.
Take GGRS: the enrichment ratio was at most 0.25.
For HHKE, the enrichment ratio was at most 0.25.
As for FSKW, the enrichment ratio is at most 0.25.
As for VLHR, the enrichment ratio is at most 0.25.
For the variant WQFK, the enrichment ratio is at most 0.25.
For the variant TWND, the enrichment ratio was at most 0.25.
Take QCWQ: the enrichment ratio was at most 0.25.
Consider PDLK, for which the enrichment ratio was at most 0.25.
In the case of TCFL it was at most 0.25; in that of AAGM, 4.06.
In the case of TFKS, the enrichment ratio is at most 0.25.
AQAC: the enrichment ratio amounted to 0.268.
Regarding PEFY, the enrichment ratio is at most 0.25.
Next, HGNI: at most 0.25; RQRI: at most 0.25.
Turning to YCDY, the enrichment ratio was at most 0.25.
As for LNCH, the enrichment ratio is at most 0.25.
Take THTC: the enrichment ratio was found to be 2.02.
For the variant YWGA, the enrichment ratio was at most 0.25.
Next, EKLW: at most 0.25; MVRW: at most 0.25.
As for QREP, the enrichment ratio is at most 0.25.
MFLP: the enrichment ratio was at most 0.25.
As for ILVQ, the enrichment ratio was at most 0.25.
Next, PLEL: at most 0.25.
In the case of TAAI it was 7.96; in that of TREP, at most 0.25; in that of YLQV, at most 0.25.
In the case of GWGP it was at most 0.25; in that of MLSY, at most 0.25; in that of LFYM, at most 0.25.
In the case of LPCT, the enrichment ratio is at most 0.25.
With DARD, the enrichment ratio was at most 0.25.
In the case of RWDG, the enrichment ratio is at most 0.25.
Consider RDNT, for which the enrichment ratio is at most 0.25.
Turning to QMYP, the enrichment ratio is at most 0.25.
On to DFFM, for which the enrichment ratio was at most 0.25.
On to SQWF, for which the enrichment ratio is at most 0.25.
Next, DTCT: at most 0.25; KEYA: at most 0.25; SEPF: at most 0.25.
Consider NWSP, for which the enrichment ratio is at most 0.25.
In the case of SNFQ it was at most 0.25.
RILT: the enrichment ratio was at most 0.25.
YDCC: the enrichment ratio is at most 0.25.
Next, TLHF: at most 0.25; ASHA: at most 0.25.
HICC: the enrichment ratio is at most 0.25.
For LMMY, the enrichment ratio is at most 0.25.
Consider GIHR, for which the enrichment ratio is at most 0.25.
In the case of SDQL, the enrichment ratio was at most 0.25.
Consider WFHN, for which the enrichment ratio is at most 0.25.
On to KVLH, for which the enrichment ratio is at most 0.25.
In the case of YPQC it was at most 0.25; in that of FRYD, at most 0.25; in that of WQIR, at most 0.25.
Consider RVPM, for which the enrichment ratio is at most 0.25.
In the case of DHHY it was at most 0.25.
For the variant GNDC, the enrichment ratio was at most 0.25.
MFAI: the enrichment ratio was at most 0.25.
For QYCN, the enrichment ratio was at most 0.25.
Regarding QPAP, the enrichment ratio was at most 0.25.
In the case of QNMV, the enrichment ratio was at most 0.25.
With NQQP, the enrichment ratio was at most 0.25.
For the variant LCNA, the enrichment ratio is at most 0.25.
PKTR: the enrichment ratio is at most 0.25.
Consider SIFH, for which the enrichment ratio was at most 0.25.
Next, RFPP: at most 0.25; DDHI: at most 0.25; RIRQ: at most 0.25.
HQMH: the enrichment ratio is at most 0.25.
On to RLPN, for which the enrichment ratio was at most 0.25.
As to IPMS, the enrichment ratio was at most 0.25.
As for NGLH, the enrichment ratio was at most 0.25.
In the case of ANSD it was at most 0.25; in that of TMYG, at most 0.25.
For NANR, the enrichment ratio was at most 0.25.
For MPYK, the enrichment ratio is at most 0.25.
In the case of EAHK it was at most 0.25; in that of TGCI, 9.63; in that of YGGD, at most 0.25.
For the variant IIDR, the enrichment ratio was at most 0.25.
QLSD: the enrichment ratio is at most 0.25.
For the variant LPDF, the enrichment ratio is at most 0.25.
Turning to HMNP, the enrichment ratio was at most 0.25.
As to NRVG, the enrichment ratio was at most 0.25.
Next, VQWA: at most 0.25; DVWY: at most 0.25.
Turning to VIIK, the enrichment ratio is at most 0.25.
Regarding KYIW, the enrichment ratio was at most 0.25.
As to PGWE, the enrichment ratio is at most 0.25.
In the case of IGAL, the enrichment ratio is at most 0.25.
Take RFSD: the enrichment ratio was at most 0.25.
Consider VPVG, for which the enrichment ratio is at most 0.25.
In the case of MHVT it was 2.1; in that of KVED, at most 0.25.
VYTE: the enrichment ratio is at most 0.25.
On to YSDI, for which the enrichment ratio is at most 0.25.
With LSVH, the enrichment ratio is at most 0.25.
Regarding PHQA, the enrichment ratio was at most 0.25.
In the case of GWWS it was at most 0.25; in that of AWQI, at most 0.25; in that of VHVL, at most 0.25.
Regarding RRDK, the enrichment ratio is at most 0.25.
With YHDQ, the enrichment ratio was at most 0.25.
As for WSGH, the enrichment ratio is at most 0.25.
As to PPLH, the enrichment ratio was at most 0.25.
In the case of RWFP it was at most 0.25; in that of HDVD, at most 0.25; in that of VYPN, at most 0.25.
Regarding GWGT, the enrichment ratio was at most 0.25.
NYWH: the enrichment ratio was at most 0.25.
For IKDG, the enrichment ratio was at most 0.25.
Regarding MKSF, the enrichment ratio was 0.322.
As for ERID, the enrichment ratio was at most 0.25.
In the case of NMCW, the enrichment ratio is at most 0.25.
In the case of MFVE it was at most 0.25.
Next, SKLI: 8.76; HNHM: at most 0.25; YPRA: at most 0.25.
As to AEPP, the enrichment ratio is at most 0.25.
For AHVD, the enrichment ratio is at most 0.25.
On to SEYA, for which the enrichment ratio turned out to be 1.86.
As to ALMY, the enrichment ratio is at most 0.25.
As for FTGL, the enrichment ratio is at most 0.25.
Turning to SCIP, the enrichment ratio is at most 0.25.
For the variant HRNP, the enrichment ratio is at most 0.25.
On to MPIK, for which the enrichment ratio is at most 0.25.
As for YNHF, the enrichment ratio is at most 0.25.
For the variant ACVN, the enrichment ratio was 31.5.
Regarding ECIN, the enrichment ratio was at most 0.25.
Next, DWNY: at most 0.25.
As for RNCH, the enrichment ratio is at most 0.25.
For the variant MDAH, the enrichment ratio is at most 0.25.
On to DGIM, for which the enrichment ratio was at most 0.25.
In the case of WHPI it was at most 0.25; in that of YHMA, at most 0.25.
Take VRYQ: the enrichment ratio was at most 0.25.
Take DNWS: the enrichment ratio was at most 0.25.
On to IMAH, for which the enrichment ratio was at most 0.25.
On to WFCQ, for which the enrichment ratio was at most 0.25.
For the variant INDP, the enrichment ratio is at most 0.25.
In the case of DHPC, the enrichment ratio was at most 0.25.
In the case of GFHG, the enrichment ratio is at most 0.25.
Next, FMRF: at most 0.25; LGDL: at most 0.25.
Next, WVRY: at most 0.25; HMRR: at most 0.25.
Take EVNL: the enrichment ratio was at most 0.25.
Turning to TDTG, the enrichment ratio was 0.585.
In the case of FGPV, the enrichment ratio is at most 0.25.
Take VGYG: the enrichment ratio was at most 0.25.
